Measured values taken from PubChem BioAssay (NCI).
Values joined by “and” are separate entries in the source; they are usually repeats but may differ in a detail not shown here. Equal entries are not always repeated.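 Compound exposure: 48 hours, 5 concentrations, 96-well plates. GI50 = concentration required for 50% inhibition of growth. TGI: total growth inhibition.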 Square brackets hold non-standard residues; d marks the D form. Peptide text beside a SMILES is read from it. * marks the point of attachment. ξ: configuration not given here. Decanoyl(3R-OH) = CCCCCCC[C@@H](O)CC(=O)*; ξK = NCCCCC(N)C(=O)O; ξP = O=C(O)C1CCCN1

The compounds below were run on NCI-H322M lung (assay: inhibition of tumour cell growth, NCI panel, 48 h).

Row | SMILES | GI50 | TGI
1 | Cc1ccc(/C=C(\C#N)n2nnc3cc(Cl)c(Cl)cc32)cc1 | 2860 nM | > 100 µM
2 | O=C1C=C2S[C@H]3C[C@]2(C=C1Br)c1c(c(O)c2c4c1=NCCC=4C=N2)N3 | – | 8.25 µM
3 | NCCCNCCSSCc1ccccc1CSSCCNCCCN | – | > 100 µM
4 | Cc1cccc2c1Oc1cc(Cl)ccc1C2NC(=O)CCN1CCCCC1 (configuration not stated) | – | 26.7 µM
5 | COc1ccc(/C=C/C(=O)c2sc(N)nc2C)cc1 | – | > 100 µM
6 | COc1ccc(C2CCc3nc4nc(N)nc(N)c4cc3C2)cc1 (configuration not stated) | – | > 100 µM
7 | Cc1cc(C)nc(NS(=O)(=O)c2ccc(Nc3c4ccccc4nc4c(C(=O)NCCN(C)C)ccc(Cl)c34)cc2)n1 | – | 6.4 µM
8 | Cn1cc(-c2csc(-c3c[nH]c4ncccc34)n2)c2cc(Br)cnc21 | > 100000 nM | > 100 µM
9 | O=C(N/N=C(/COc1cccc(Cl)c1)N=Cc1ccncc1)c1ccncc1 | – | > 100 µM
10 | O=C(Oc1cccnc1)c1ccccc1Nc1ccnc(C(F)(F)F)c1 | 4330 nM | 29.1 µM
11 | CC1=C(C)C(=O)OC(C(C)(O)C2(O)CCC3(O)C4CC(Cl)C5(O)C(O)C=CC(=O)C5(C)C4CCC32C)C1 (configuration not stated) | – | > 100 µM
12 | Cc1cc2c3ccccc3n(C)c2c2c1C(=O)c1ccccc1C2=O | – | 40.2 µM
13 | COC1/C=C/C(C)C(OC)CC(O)/C=C/C(C)C(C(C)C(OC)C(C)CCC(=O)C(C)C(C/C=C/N(C)C=O)OC)OC(=O)/C=C/C=C(\C)CC(OC)C(OC)C2=CC(=O)O[C@@H](C(C)C(OC)C1)[C@H]2O (some centres not stated) | – | 0.278 µM
14 | COc1ccc(/C=C2/C(=O)N(C(=O)c3ccccc3O)N=C2C)cc1OC | – | > 100 µM
15 | Cc1ccc(SSCCCS(=O)O)cc1 | – | > 100 µM
16 | C/C=C/C=N/N(c1nnc(-c2ccccc2)c(-c2ccccc2)n1)S(=O)(=O)c1ccc(C)cc1 | – | 33.9 µM
17 | COc1cc(/C=C/C(=O)C(=Cc2ccc(F)c(F)c2)C(=O)/C=C/c2ccc(O)c(OC)c2)ccc1O | 5940 nM | 20.7 µM
18 | Cc1c2cc[n+](COC(=O)c3ccccc3)cc2c(C)c2c1[nH]c1ccccc12 | – | 1.91 µM
19 | CCOC(=O)C(Cc1ccc2c(c1)CCC2)(Cc1ccc2c(c1)CCC2)C(=O)OCC | – | > 100 µM
20 | Cc1ccc2nc3c(C(=O)NCCN(C)C)cccc3cc2c1 | – | 6.65 µM
21 | COc1cc(CNC(=O)/C=C/C=C/c2ccc3c(c2)OCO3)ccc1OCc1cn(-c2ccc(Cl)c(Cl)c2)nn1 | 2940 nM | 11.7 µM

Row | SMILES | GI50 | TGI
22 | CCCCCCC[C@@H](O)CC(=O)N[C@H](CCCCN)C(=O)N[C@H](Cc1c[nH]c2ccccc12)C(=O)NC(CCCCN)C(=O)N[C@H](CC(C)C)C(=O)N[C@H](Cc1ccccc1)C(=O)N[C@H](CCCCN)C(=O)N[C@H](CCCCN)C(=O)N[C@H](CC(C)C)C(=O)N1CCCC1C(=O)N[C@H](CCCCN)C(=O)N[C@H](Cc1ccccc1)C(=O)N[C@H](CC(C)C)C(=O)N[C@H](Cc1c[nH]cn1)C(=O)N[C@H](CC(C)C)C(=O)N[C@H](C)C(=O)N[C@H](CCCCN)C(=O)N[C@H](CCCCN)C(=O)N[C@H](Cc1ccccc1)C(=O)O (stereo partly drawn) ({Decanoyl(3R-OH)}-[dK][dW][ξK][dL][dF][dK][dK][dL][ξP][dK][dF][dL][dH][dL][dA][dK][dK][dF]-OH) | 591 nM | 1.07 µM
23 | O=C(CC(=O)c1ccncc1)c1ccccc1 | – | > 100 µM
24 | N#CS/C(C(Cl)=C(Cl)Cl)=C(/Cl)[N+](=O)[O-] | – | 33.7 µM
25 | CN(C)C(=S)Nc1nnc(NC23CC4CC(CC(C4)C2)C3)s1 | – | > 100 µM
26 | COc1ccc(CN2c3ccccc3Sc3ccccc32)cc1F | 623 nM | > 100 µM
27 | CC(=O)OC1C=CC2CCN3C(=O)c4cc5c(cc4[C@H]1C23)OCO5 (some centres not stated) | – | > 100 µM
28 | C=C1C(=O)OC2/C=C(\C)CC/C=C(/C)CC(OC(=O)/C(=C/CO)CO)C12 (configuration not stated) | – | > 100 µM
29 | NC(CCCCCP(=O)(O)O)C(=O)O (configuration not stated) | – | > 100 µM
30 | CCOC(=O)C1=C(Nc2ccccc2)OC/C1=N\NC(=O)Cc1ccccc1 | – | > 50 µM
31 | Oc1nc(NCCc2ccccc2)sc1/C=C1\C=Nc2ncccc21 | 2090 nM and 2900 nM | 13.4 µM and 77.4 µM
32 | CCOC(=O)C(SCCO)C(C(=O)OCC)n1ccc(N)nc1=O (configuration not stated) | – | > 100 µM
33 | CC(/C=C/c1ncccc1OCCCCCC(=O)O)=N\NC1=NCCN1 | – | > 100 µM
34 | CC(C)c1cc(C(C)C)c(S(=O)(=O)NN)c(C(C)C)c1 | – | > 100 µM
35 | O=C(c1cc(=O)c2ccc(O)cc2o1)c1ccc(Cl)cc1Cl | – | > 100 µM
36 | Cc1nn2c(N)cc(=O)nc2nc1/C=C/c1ccc(N(C)C)cc1 | – | > 100 µM
37 | COc1cc(/C=C2\C(=O)N(c3cccc(Cl)c3)C(c3ccccc3)S2(=O)=O)cc(OC)c1OC (configuration not stated) | – | > 100 µM
38 | NS(=O)(=O)c1ccc(NNC(=O)c2cccc3c(=O)c4ccccc4[nH]c23)cc1 | – | > 100 µM
39 | CCOP(=O)(CCP(=O)(OCC)OCC)OCC.C[CH2][Sn]([Cl])([Cl])[CH2]C | > 91200 nM | > 100 µM
40 | c1ccc(Cc2cccc3cc(-c4ccc(-c5ccccc5)cc4)[nH]c23)cc1 | – | > 100 µM
41 | C=C1c2nc3ccccc3n2C=C(c2ccc(Cl)cc2)N1c1ccc(OCCN2CCOCC2)cc1 | – | > 100 µM
42 | CCOC(=O)/C(C(=S)NC)=C(/N)N1CCCC1 | – | > 100 µM

Row | SMILES | GI50 | TGI
43 | N=C(N)n1ncc(Cl)c(Cl)c1=O | – | 25 µM
44 | C/C(Cl)=N\OC(=O)Nc1ccc([N+](=O)[O-])cc1 | – | > 100 µM
45 | CSc1ccc2c(c1)c(CCN)c(C)n2Cc1ccc(Cl)c(Cl)c1 | 1460 nM | 2.86 µM
46 | COc1ccc2c(=O)c([Se]c3coc4cc(OC)ccc4c3=O)coc2c1 | – | > 100 µM
47 | CC(=O)Nc1ccc2nncnc2c1 | – | > 100 µM
48 | CCN(CC)CCn1ncc2ccc3c(c(=O)c4cccnc4n3CCN(CC)CC)c21 | – | 4.34 µM
49 | O=C1NC(=NCC(CO)c2ccccc2)S/C1=C\c1ccc2ncccc2c1 (configuration not stated) | 17100 nM | > 25 µM
50 | O=C(CSc1nc2ccc(I)cc2c(=O)n1Cc1ccccc1)N/N=C/c1ccccc1 | – | > 100 µM
51 | OC(c1ccccc1)(c1ccccc1)c1ccccn1 | – | > 100 µM
52 | CC(=O)OCC1C(C(C)OC(C)=O)CCC2C1CCC1(C)C(OC(C)=O)CCC21 (configuration not stated) | – | 33.9 µM
53 | COC(=O)CCC(NC(=S)N/N=C(\C)c1ccccn1)C(=O)OC (configuration not stated) | – | > 100 µM
54 | Cc1ccc(-n2c3c(c4c(CN5CCCCC5)c(O)ccc42)CCc2ccccc2C3=O)cc1 | > 100000 nM | > 100 µM
55 | C=C1CC(OC(C)=O)/C=C(/C)CCC(C(C)(C)O)CC1O (configuration not stated) | – | > 100 µM
56 | C=CCC(C(=O)OC)C1(C(=O)OC)c2[nH]c3ccccc3c2CCN1Cc1ccccc1 (configuration not stated) | – | > 100 µM
57 | C=CCCCCOC1C=CC(OC(C)=O)C(COC(C)=O)O1 (configuration not stated) | – | > 100 µM
58 | C#CCNC(=O)CCC(N)C(=O)O (configuration not stated) | – | > 100 µM
59 | CC/C(=N\Nc1nc2ccccc2n1C)c1ccccn1 | 46.7 nM | 11.2 µM
60 | Oc1c(C(O)(c2ccccc2)c2ccc3ccccc3c2O)ccc2ccccc12 | – | 31 µM
61 | CCN1CCN(CCOc2ccc(CNc3ccc4nc(CCC5CCCCC5)[nH]c4c3)cc2)CC1 | 2870 nM | 10.2 µM
62 | COC1=C(OC)C(=O)C(/C=C(\C)C(=O)O)=C(C)C1=O | > 100000 nM | > 100 µM
63 | Nc1nnc2nc(CC(=O)/C=C/c3ccccc3)c(=O)[nH]n12 | – | > 100 µM

Row | SMILES | GI50 | TGI
64 | CCOc1ccccc1NC(=O)C(=O)CC(=O)C1=C(C)Nc2ccccc2S1 | – | > 100 µM
65 | CN1CCc2c(sc3nc(Nc4ccccc4)n(N)c(=O)c23)C1 | – | > 100 µM
66 | CC1=C(C(=O)Nc2cccc(C(F)(F)F)c2)C(c2ccc(O)cc2)C(C(=O)Nc2cccc(C(F)(F)F)c2)=C(C)N1 | – | 88.8 µM
67 | NC(=O)c1cnc2sc3ccccc3n2c1=O | – | > 100 µM
68 | C[N+](C)(C)CCOP(=O)(O)OP(=O)([O-])OCC1CCC(n2ccc(N)nc2=O)O1 (configuration not stated) | – | > 100 µM
69 | CC1=NN(c2nc(N)nc(CS(C)(=O)=O)n2)C(C)(C)C1 | – | > 100 µM
70 | COc1ccc(Nc2c3ccccc3nc3c2c2ccccc2n3C)cc1 | > 100000 nM | > 100 µM
71 | N#Cc1ccc(Oc2nccc(-c3c(-c4ccc(F)cc4)ncn3C3CCNCC3)n2)cc1 | > 25000 nM | > 25 µM
72 | Cc1ccnc(NS(=O)(=O)c2ccc(NC(=O)c3ccc4nc5ccccc5c(Nc5ccc(S(=O)(=O)Nc6nccc(C)n6)cc5)c4c3)cc2)n1 | – | > 100 µM
73 | COc1cc2cc3c4c(cc(OC)c(OC)c4c2cc1OC)CCN3C(=O)CCCC(=O)O | – | > 100 µM
74 | NS(=O)(=O)c1nnc(NC(=O)CCC(=O)O)s1 | – | > 100 µM
75 | CCCCCCCCCCCCCCCCOC(=O)C(C(=O)OCCCCCCCCCCCCCCCC)[N+](C)(C)CCOC(C)=O | – | 29 µM
76 | Clc1cc2nc(C3CCCO3)[nH]c2cc1Cl (configuration not stated) | – | > 100 µM
77 | COC(=O)C12CCC(C(=O)OC)(Cc3c(c4ccccc4n3S(=O)(=O)c3ccccc3)C1)C2=O (configuration not stated) | – | > 100 µM
78 | COC(=O)C(C(=O)C(=O)Nc1cccc(O)c1)c1nc2ccc(Cl)cc2[nH]c1=O (configuration not stated) | – | > 100 µM
79 | CCCCCCN(CCCCCC)CCCNc1nccc2ccccc12 | 3490 nM | 14.1 µM
80 | COc1cc2cc(c1Cl)N(C)C(=O)CC(OC(=O)C(C)C)C1(C)OC1C(C)C1CC(O)(NC(=O)O1)C(OC)/C=C/C=C(C)C2 (configuration not stated) | – | 26.1 µM
81 | CCC(=O)C1=C(OC(C)=O)C2Cc3c(n(C)c4ccccc34)C(C1)N2C (configuration not stated) | – | > 100 µM
82 | CCCNc1nc(N(C)O)nc(N(C)O)n1 | 968 nM | > 100 µM
83 | NC(=S)N/N=C(/CC(=O)c1ccc([N+](=O)[O-])cc1)C(=O)Nc1ncc([N+](=O)[O-])s1 | – | > 100 µM
